Assay results as given in PubChem BioAssay AID624296 (National Center for Advancing Translational Sciences (NCATS), 2012).
Values joined by “and” are separate entries in the source; they are usually repeats but may differ in a detail not shown here. Equal values may be shown once. Out of some 350,000 compounds screened, about 9,900 (2.8%) were called active. Inconclusive means that the source gave no clear call. Such entries were picked first, then a sample of the others. The call rests on the fitted dose curve; in most records, active means well fitted activation curve with a large enough effect; inconclusive means small, poorly fitted or top-dose-only effect; inactive means no such curve, though single readings can be large or run the other way. Potencies beside an inconclusive call are fits to weak or partial responses and may not hold up.

Assay: A quantitative high throughput screen for small molecules that induce DNA re-replication in MCF 10a normal breast cells. Further: nearly all actives have a fitted effect of over 50% in size. On activity, positive = re-replication: % of control where 0% means no effect.
Conditions: MCF 10A DNA re-replication, Hoechst nuclear intensity, 48 h; activity, positive = re-replication: at 46.1 µM (top of the series)
Potency means the concentration at half of the fitted maximal effect; tags describe the fitted curve by direction and shape.

**Q.** For O=C(Nc1ccccc1N1CCN(C(=O)c2ccc(Cl)cc2)CC1)c1ccc2c(c1)OCO2, which “activity, positive = re-replication” value is on record?
**A.** The value was inactive: 10.1%.

**Q.** With C=C(CN(C)C)C(=O)c1cc(C)ccc1C as the compound, how does the Potency read?
**A.** Its Potency is active: 2.59 µM.

**Q.** For Cc1cc(=O)[nH]c(/N=C(\N)Nc2ccc3c(c2)OCCO3)n1, which “activity, positive = re-replication” value is on record?
**A.** Its value is inactive: -19.8%.

**Q.** With C/C(N)=C(/C#N)C(=O)COC(=O)c1cc(-c2ccc(Br)cc2)nc2ccccc12 as the compound, how does the Potency read?
**A.** The Potency was inconclusive: 29.1 µM [activator, single point] and inconclusive: 23.1 µM [activator, single point].

**Q.** For N#CCCn1cc(C(=O)Nc2ccccc2Br)c(-c2cc3ccccc3o2)n1, which Potency is on record?
**A.** Its Potency is inconclusive: 18.4 µM [activator, partial curve, poor fit].

**Q.** Which “activity, positive = re-replication” value does the source give for CC1CCCCN1S(=O)(=O)c1ccc(C(=O)Nc2ccccc2-c2nc3ccccc3[nH]2)cc1 (configuration not stated) here?
**A.** The value was inactive: 0.0084%.

**Q.** Which Potency does the source give for Cc1nc2sccn2c(=O)c1CCN1CCC(=C(c2ccc(F)cc2)c2ccc(F)cc2)CC1 here?
**A.** Its Potency is active: 2.06 µM.

**Q.** With Cc1ccc(N2CC(C(=O)Nc3nnc(SCC(=O)Nc4nc(C)cs4)s3)CC2=O)cc1 (configuration not stated) as the compound, how does the Potency read?
**A.** The Potency was inconclusive: 18.4 µM [activator, single point].

**Q.** Which “activity, positive = re-replication” value does the source give for O=C(CSc1ccccc1)Nc1ccc(Cl)c(S(=O)(=O)N2CCOCC2)c1 here?
**A.** The value was inactive: -2.47%.

**Q.** With Cc1ccc(CNC(=O)c2ccc(N(C)C)cc2)cc1 as the compound, how does the Potency read?
**A.** The Potency was inconclusive: 6.51 µM [activator, single point].

**Q.** With CC1CCCN(CC(=O)Nc2ccc(S(=O)(=O)N3CCCC3)cc2)C1 (configuration not stated) as the compound, how does the “activity, positive = re-replication” value read?
**A.** Its value is inactive: 17.8%.

**Q.** For CC(C)(C)C1CCc2c(sc(NC(=O)C3CCCO3)c2C(N)=O)C1 (configuration not stated), which Potency is on record?
**A.** Its Potency is active: 17.8 µM.

**Q.** With Cc1cc(=O)[nH]c(N/N=C/c2ccccc2Cl)n1 as the compound, how does the Potency read?
**A.** Its Potency is inconclusive: 25.9 µM [activator, single point].

**Q.** Which Potency does the source give for CCCc1c(C(=O)N/N=C/c2c(OC)ccc3ccccc23)nnn1-c1nonc1N here?
**A.** Its Potency is inconclusive: 4.61 µM [activator, full curve, poor fit].

**Q.** Which Potency does the source give for COC(=O)c1c(NC(=O)C2CC(C)=C(C)CC2C(=O)O)sc2c1CCCCC2 (configuration not stated) here?
**A.** The Potency was inconclusive: 16.4 µM [activator, partial curve, poor fit].

**Q.** With COC(=O)C1(C)NC(c2ccccc2OC)C2C(=O)N(c3ccccc3)C(=O)C21 (configuration not stated) as the compound, how does the Potency read?
**A.** The Potency was inconclusive: 1.16 µM [activator, partial curve, poor fit].

**Q.** For CC(C)CNC(=S)N1CCC(C(=O)c2ccc(F)cc2)CC1, which “activity, positive = re-replication” value is on record?
**A.** Its value is inactive: 7.33%.

**Q.** Which Potency does the source give for CC1=C/C(=N\NC(=S)Nc2cccnc2)CC(C)(C)C1 here?
**A.** The Potency was inconclusive: 6.51 µM [activator, full curve].

**Q.** With COc1ccc(Cn2nnc3c(=O)[nH]c(C4CCCN(C(=O)c5ccccc5)C4)nc32)cc1 (configuration not stated) as the compound, how does the “activity, positive = re-replication” value read?
**A.** The value was inactive: -7.23%.

**Q.** For O=S(=O)(Nc1cccc2cccnc12)c1ccccc1, which Potency is on record?
**A.** Its Potency is active: 20.6 µM.

**Q.** Which Potency does the source give for COc1ccccc1OCc1nn[nH]n1 here?
**A.** Its Potency is inconclusive: 4.61 µM [activator, partial curve, poor fit].

**Q.** For CCOC(=O)c1ccccc1OCc1cc(/C=N/NC(=O)c2ccncc2)ccc1OC, which “activity, positive = re-replication” value is on record?
**A.** Its value is inactive: 14.6%.

**Q.** For CC(=O)Nc1ccc(OCc2cccc([N+](=O)[O-])c2)cc1, which “activity, positive = re-replication” value is on record?
**A.** The value was inactive: 0%.

**Q.** Which Potency does the source give for CS(=O)(=O)N(CC(=O)NC1CCCC1)c1ccc2c(c1)OCCO2 here?
**A.** The Potency was inconclusive: 23.1 µM [activator, partial curve, poor fit].

**Q.** For CCOC(=O)c1cnn(-c2ccc(NS(=O)(=O)c3ccc(Cl)cc3)cc2)c1C(F)(F)F, which Potency is on record?
**A.** Its Potency is inconclusive: 20.6 µM [activator, single point].

**Q.** Which Potency does the source give for COc1cccc(/C=C/C(=O)c2cccc([N+](=O)[O-])c2)c1 here?
**A.** The Potency was inconclusive: 29.1 µM [activator, single point].

**Q.** For CC(=O)C1=C(O)C(=O)N(CCCN2CCOCC2)C1c1ccccc1[N+](=O)[O-] (configuration not stated), which Potency is on record?
**A.** The Potency was inconclusive: 25.9 µM [activator, single point].

**Q.** Which Potency does the source give for O=C(CCSCc1cccc(F)c1)NCc1ccc(F)cc1 here?
**A.** The Potency was inconclusive: 20.6 µM [activator, single point].

**Q.** For Cn1ncc([N+](=O)[O-])c1C(=O)Nc1ccc(Cl)cc1, which Potency is on record?
**A.** Its Potency is inconclusive: 6.51 µM [activator, partial curve, poor fit].

**Q.** With Clc1ccccc1Nc1c2c(nc3ncnn13)CCC2 as the compound, how does the “activity, positive = re-replication” value read?
**A.** Its value is inactive: 5.48%.

**Q.** With CC1CCCCN1C(=O)Cn1nnc(-c2cccnc2)n1 (configuration not stated) as the compound, how does the Potency read?
**A.** The Potency was inconclusive: 1.03 µM [activator, partial curve, poor fit].

**Q.** Which Potency does the source give for Cc1ccc(N2C(=O)C3C4C=CC(CC4)C3C2=O)cc1Br (configuration not stated) here?
**A.** Its Potency is inconclusive: 11.6 µM [activator, partial curve, poor fit].

**Q.** With COc1ccc(CCN(C)Cc2ccc(C(=O)Nc3ccccc3)cc2)cc1OC as the compound, how does the Potency read?
**A.** Its Potency is inconclusive: 18.4 µM [activator, single point].

**Q.** Which Potency does the source give for O=S(=O)(/C=C/c1ccccc1)N1CCN(c2ccccc2)CC1 here?
**A.** Its Potency is inconclusive: 20.6 µM [activator, single point].

**Q.** With Cc1cc(C)nc(NS(=O)(=O)c2ccc(NC(=O)Cc3ccccc3F)cc2)n1 as the compound, how does the Potency read?
**A.** The Potency was inconclusive: 23.1 µM [activator, partial curve, poor fit].

**Q.** With Cc1ccc(/C(N)=N/OC(=O)c2cccc(F)c2)cc1 as the compound, how does the Potency read?
**A.** Its Potency is inconclusive: 3.66 µM [activator, single point].

**Q.** For Cc1ccc(-c2nc3cc(NC(=O)C(C)C)ccc3o2)cc1, which “activity, positive = re-replication” value is on record?
**A.** The value was inactive: -2.14%.

**Q.** For Cc1ccc(C(C)NC(=O)c2cc3cc(Br)ccc3oc2=N)cc1 (configuration not stated), which Potency is on record?
**A.** Its Potency is inconclusive: 23.1 µM [activator, single point].

**Q.** For Cc1ccc(C(=O)CC(=O)c2cc(Cl)ccc2O)cc1, which Potency is on record?
**A.** Its Potency is inconclusive: 18.4 µM [activator, single point].

**Q.** Which Potency does the source give for COc1ccc2c(c1)sc(=N)n2C here?
**A.** Its Potency is inconclusive: 25.9 µM [activator, partial curve, poor fit].

**Q.** Which Potency does the source give for O=C(COC(=O)/C=C/c1ccco1)Nc1cc(S(=O)(=O)N2CCOCC2)ccc1Cl here?
**A.** Its Potency is inconclusive: 29.1 µM [activator, partial curve, poor fit].

**Q.** With COc1ccc(OC)c(/C=N\NC(=O)c2ccc(-c3ccccc3)cc2)c1 as the compound, how does the Potency read?
**A.** Its Potency is inconclusive: 18.4 µM [activator, partial curve, poor fit].

**Q.** With Cc1[nH]n(-c2ccccc2)c(=O)c1N=Nc1nccs1 as the compound, how does the Potency read?
**A.** The Potency was inconclusive: 4.61 µM [activator, full curve].

**Q.** Which Potency does the source give for CCN1CCN(CCCNC(=O)c2ccc3c(c2)NC(=O)/C(=C\c2cccc(C)c2)S3)CC1 here?
**A.** The Potency was inconclusive: 16.4 µM [activator, partial curve, poor fit].

**Q.** With COc1nc(-c2ccc(C)cc2)ccc1-c1noc(-c2cccnc2)n1 as the compound, how does the Potency read?
**A.** The Potency was active: 20.6 µM.

**Q.** For COc1cc(CNC2CCCC2)cc(Cl)c1OCc1ccccc1F, which “activity, positive = re-replication” value is on record?
**A.** Its value is inactive: 2.23%.

**Q.** With CCN(CC)c1ccc(C=C2SC(=S)NC2=O)cc1 as the compound, how does the Potency read?
**A.** The Potency was inconclusive: 29.1 µM [activator, single point].

**Q.** For COc1cc(NC(=O)Cn2ncc(Cl)c(Cl)c2=O)c(C)cc1[N+](=O)[O-], which Potency is on record?
**A.** Its Potency is active: 3.66 µM.

**Q.** With COCCN(C(=O)c1ccc(-c2ccc(Cl)cc2)o1)c1c(N)n(Cc2ccccc2)c(=O)[nH]c1=O as the compound, how does the “activity, positive = re-replication” value read?
**A.** Its value is inactive: 1.13%.

**Q.** For COc1ccccc1/C=C(/CC(=O)NCc1ccc(F)cc1)c1nc2ccccc2s1, which Potency is on record?
**A.** The Potency was inconclusive: 23.1 µM [activator, partial curve].

**Q.** With CC(=O)Oc1ccc(N(C(C)=O)S(=O)(=O)c2ccc3ccccc3c2)cc1Br as the compound, how does the Potency read?
**A.** The Potency was active: 13 µM.

**Q.** Which Potency does the source give for CC(=O)c1ccc(NC(=O)C(C)n2nc(-c3ccccc3)c3cc(Cl)ccc32)cc1 (configuration not stated) here?
**A.** The Potency was inconclusive: 14.6 µM [activator, partial curve, poor fit].

**Q.** For CCOC(=O)c1cc(-c2ccccc2)sc1NC(=O)C(C)OC(=O)c1cccnc1OCC (configuration not stated), which Potency is on record?
**A.** The Potency was inconclusive: 20.6 µM [activator, partial curve, poor fit].

**Q.** With CCOC(=O)c1cc(C#N)c(N2CCCC2)nc1-c1ccccc1 as the compound, how does the Potency read?
**A.** Its Potency is inconclusive: 18.4 µM [activator, single point].

**Q.** For Cc1ccc(NC(=O)C2CCCN(C(=O)Nc3ccc(F)cc3)C2)cc1 (configuration not stated), which “activity, positive = re-replication” value is on record?
**A.** The value was inactive: -0.254%.

**Q.** Which “activity, positive = re-replication” value does the source give for OC(CN(c1ccccc1)c1ccccc1)Cn1cnc2ccccc21 (configuration not stated) here?
**A.** Its value is inactive: 6.37%.

**Q.** With CCOC(=O)c1c(C)[nH]c(O)c1C=Nc1ccc(Cl)cc1 as the compound, how does the Potency read?
**A.** The Potency was inconclusive: 23.1 µM [activator, single point].

**Q.** Which Potency does the source give for CCOc1cccc(-c2c(C(=O)N/N=C(\C)c3cccs3)nnn2-c2nonc2N)c1 here?
**A.** The Potency was inconclusive: 0.58 µM [activator, partial curve, poor fit].

**Q.** For CN(C)CCCN(Cc1cc2cc3c(cc2[nH]c1=O)OCO3)C(=S)Nc1cccc(Cl)c1, which Potency is on record?
**A.** Its Potency is active: 15.8 µM.

**Q.** With Clc1ccc(CSc2nnc(-c3c[nH]c4ccccc34)o2)cc1 as the compound, how does the Potency read?
**A.** The Potency was active: 20.6 µM.

**Q.** For CCN(CC)CCCC1(CN)OCCc2ccccc21 (configuration not stated), which Potency is on record?
**A.** Its Potency is inconclusive: 1.84 µM [activator, full curve, poor fit].

**Q.** Which “activity, positive = re-replication” value does the source give for O=C(CN(c1ccccc1)S(=O)(=O)c1ccc(F)cc1)NCc1cccs1 here?
**A.** Its value is inactive: -1.95%.

**Q.** With C[C@H]1CN([C@@H](C)CO)C(=O)Cc2cc(NC(=O)CCC(F)(F)F)ccc2O[C@H]1CN(C)Cc1ccc(-c2ccccc2)cc1 as the compound, how does the Potency read?
**A.** Its Potency is inconclusive: 20.6 µM [activator, single point].

**Q.** With CC1=CC(C)(C)[N+](C)(C)c2ccccc21 as the compound, how does the Potency read?
**A.** The Potency was inconclusive: 6.51 µM [activator, partial curve, poor fit].

**Q.** For C/C(=N\NC(=O)Cn1nc(C)c([N+](=O)[O-])c1C)c1ccco1, which Potency is on record?
**A.** The Potency was inconclusive: 1.64 µM [activator, partial curve].

**Q.** With CNC[C@H](Cc1ccccc1)NC[C@@H](Cc1cccc2ccccc12)NCCc1ccc(C)cc1 as the compound, how does the Potency read?
**A.** The Potency was inconclusive: 10.3 µM [activator, partial curve, poor fit].

**Q.** For CCOC(=O)c1c(C)nc2c(c1-c1ccc(OC)cc1)C(=O)CC(C)(C)C2, which Potency is on record?
**A.** Its Potency is inconclusive: 0.141 µM [activator, full curve, poor fit].
